The source of these data is US11505533B2, “Metabolically stable N-acylaminooxadiazoles useful as antibacterial agents” (MICROBIOTIX, INC., priority 2017, dated 2022).

Structures are written as SMILES. Values after ≈ are worked out from the molar mass of the structure shown.

The test system of experiment [1] is Neisseria gonorrhoeae strain H041(STMR). The experiment can be described thus: Vaginal gonococcal murine model. As for the experimental part: FIG. 5 is a graph showing the combined data for two independent in vivo efficacy studies of oral administration of uriedo aminooxadiazole derivative MBX-4132 to female mice infected with Neisseria gonorrhoeae strain H041(STMR) in a vaginal gonococcal murine model. For a published description of the efficacy model, see, Butler, M. et. al., Antimicrobial Agents Chemother., 62(5):e00321 (2018). MBX-4132 was administered (3.3 or 10 mg/kg, PO) once 2 days following infection.
Two separate efficacy studies examined oral efficacy against a murine model of vaginal gonococcal infection. These studies utilized the strain H041, a highly drug-resistant Ng clinical isolate described by Ohnishi et. al. Antimicrob. Agents Chemother., 55(7): 3538 (2011). Each study was performed using both untreated and gentamycin (48 mg/kg IP, QD 5 days) controls (representing 2 experimental groups). In each of two experiments, the test agent was MBX-4132 given as an oral dosage at either 3.3 mg/kg or 10 mg/kg via a single oral dosage. Two days prior to experiments, female BALB/c mice were treated with 17β-estradiol and antibiotics to increase their susceptibility to Ng as described previously (Jerse et. al., Frontiers Microbial., 2: 107 (2011)).
On day 0, mice were inoculated vaginally with 20 μl of strain H041(STM^R) suspended in PBS; suspensions adjusted to 5×10^5 CFU/ml (infectious dose 80; ID80). For H041(STM^R), the ID80 is 10^4 CFU/mouse. Vaginal swabs were quantitatively cultured for Ng on days 1 and 2 following vaginal inoculation to confirm infection prior to treatment. A portion of the swab sample was also inoculated onto HIA agar to monitor commensal flora. Test and control antibiotics were administered on day 2 post-bacterial inoculation after the day 2 culture was collected and for four more consecutive days. […] Vaginal swabs were quantitatively cultured for N. gonorrhoeae for 8 consecutive days following treatment. […] The number of viable bacteria recovered was determined using the Spiral Biotech Q-Counter Software. […]

The subject of experiment [2] is trans-translation (non-stop ribosome rescue). The experiment is described as follows: microbe, parasite or virus in culture. As to conditions: Escherichia coli, read-out: AVG Luc IC50 ΔtolC (μM). From the text: The reporter contains a gene encoding luciferase with a strong transcriptional terminator inserted before the stop codon, such that transcription results in a nonstop mRNA. E. coli cells containing the reporter were screened in high-throughput format to identify compounds that inhibit trans-translation. When no inhibitor is present, translation of the nonstop mRNA results in trans-translation followed by proteolysis of luciferase, and cells produce no luminescence. Conversely, active luciferase is produced when a trans-translation inhibitor is present, resulting in luminescence. (See, FIG. 2.)
To verify that analogs with potent antibacterial activity inhibit non-stop ribosome rescue, the inhibitors were tested against a cell-based non-stop ribosome rescue reporter assay that was constructed in an efflux-deficient strain of E. coli. The gain-of-signal assay may be performed essentially as previously described in Ramadoss et al., Proc. Natl. Acad. Sci. U.S.A., 110(25): 10282-7 (2013), except that the dose-dependent increase of signal is used to calculate the compound concentration that produces half maximal induction of the reporter (EC50).

Experiment [3] relates to E. coli (701, TolC−) efflux neg. The experiment is described as follows: microbe, parasite or virus in culture. Format: cell-based. As to conditions: Escherichia coli.

Turning to `O=C(Nc1nnc(-c2ccc(F)cc2)o1)N1CCc2ccccc2C1` [MBX-4132], the clearance rate in experiment [1] (3.3 mg/kg PO once, 2 d after infection) came out at 60%. Also, in experiment [1] (3.3 mg/kg PO once, p=0.058), the “effect relative to untreated controls” value is reported as “a smaller effect, failing to achieve statistical significance”. Further, the “mice completely cleared of infection” value in experiment [1] (10 mg/kg PO once, 2 d after infection, within 6 days of treatment, two experiments combined) is listed as 80%. As for `O=C(Nc1nnc(-c2ccc(F)cc2)o1)N1CCc2ccccc2C1` [compound 4132, N-[5-(4-fluorophenyl)-1,3,4-oxadiazol-2-yl]-3,4-dihydroisoquinoline-2(1H)-carboxamide], the IC50 – broadly, the point on the concentration scale where inhibition reaches its midpoint – in experiment [2] is 0.593 µM. Besides, in experiment [3], the MIC stood at 2.14 µg/mL (≈ 6.32 µM). For `O=C(Nc1nnc(-c2ccc(F)cc2)o1)c1ccc(Oc2ccccc2)nc1` [compound 4237, 2-(6-phenoxynicotinamido)-5-(4-fluorophenyl)-1,3,4-oxadiazole] the same measures were 0.238 µM and 0.6 µg/mL (≈ 1.59 µM).

`CCN(c1ccccc1)c1ccc(C(=O)Nc2nnc(-c3ccc(F)cc3)o2)cc1` [compound 4285]: the MIC in experiment [3] turned out to be 13.3 µg/mL (≈ 33 µM).

Consider `CC(C)(C)OC(=O)N1CC(Oc2ccc(C(=O)Nc3nnc(-c4ccc(F)cc4)o3)cc2)C1` [compound 4288], for which the MIC in experiment [3] turned out to be 1.59 µg/mL (≈ 3.5 µM). For `O=C(Nc1nnc(-c2ccc(F)cc2)o1)c1ccc(OC2CCCCC2)cc1` [compound 4292], the IC50 in experiment [2] was found to be 0.26 µM. The same compound yielded an MIC in experiment [3] of 0.43 µg/mL (≈ 1.13 µM).

For the compound `O=C(Nc1nnc(-c2ccc(F)cc2)o1)c1ccc(OC2CCCC2)cc1` [compound 4293], the IC50 in experiment [2] was 0.278 µM. Also, the MIC in experiment [3] was found to be 0.51 µg/mL (≈ 1.39 µM).

On to `O=C(Nc1nnc(-c2ccc(F)cc2)o1)c1ccc(Oc2cccc(O)c2)cc1` [compound 4304], for which the IC50 in experiment [2] was 0.78 µM. On to `Cc1ccc(Oc2ccc(C(=O)Nc3nnc(-c4ccc(F)cc4)o3)cc2)cc1` [compound 4305], for which the IC50 in experiment [2] was determined as 0.259 µM. On the same count and under the same terms, under `Cc1cccc(Oc2ccc(C(=O)Nc3nnc(-c4ccc(F)cc4)o3)cc2)c1` [compound 4306] stands 0.37 µM; under `COc1ccc(Oc2ccc(C(=O)Nc3nnc(-c4ccc(F)cc4)o3)cc2)cc1` [compound 4310], 0.35 µM. With `O=C(Nc1nnc(-c2ccc(F)cc2)o1)N1Cc2ccccc2C1` [compound 4330], the IC50 in experiment [2] amounted to 0.15 µM. Moreover, the MIC in experiment [3] was determined as 2.02 µg/mL (≈ 6.23 µM).

Take `O=C(Nc1nnc(-c2ccc(F)cc2)o1)N1CCc2cc(F)ccc2C1` [compound 4331]: the IC50 in experiment [2] came to 0.13 µM. In experiment [3], the MIC is 1.11 µg/mL (≈ 3.12 µM). Take `O=C(Nc1nnc(-c2ccc(F)cc2)o1)N1CCc2ccc(F)cc2C1` [compound 4332]: the 50% inhibitory concentration (IC50) in experiment [2] stood at 0.11 µM. The compound further returned an MIC in experiment [3] of 1.11 µg/mL (≈ 3.12 µM).

As for `C=CCN(C)C(=O)Nc1nnc(-c2ccc(F)cc2)o1` [compound 4345], the MIC in experiment [3] is 6.9 µg/mL (≈ 25 µM). As to `O=C(Nc1nnc(-c2ccc(F)cc2)o1)N1CC=C(C(F)(F)F)CC1` [compound 4347], the IC50 in experiment [2] was 0.14 µM. For the same compound, the MIC in experiment [3] was determined as 27 µg/mL (≈ 75.8 µM). Take `CC(Oc1ccc(C(=O)Nc2nnc(-c3ccc(F)cc3)o2)cc1)c1ccccc1` (stereo not drawn) [compound 4357]: the IC50 in experiment [2] was determined as 0.123 µM.
